Reference: PubChem BioAssay (NCATS)
Where “and” joins values, the source holds several entries; their conditions need not be identical. Equal values may be shown once. The shares of active, inactive and inconclusive entries below differ from those in the screen. Potencies of inconclusive entries are doubtful fits and often do not repeat. Calls of active or inactive are those of the source. Calls come from the whole dose curve; as a rule, active = well fitted inhibition curve with a large enough effect; inconclusive = small, poorly fitted or top-dose-only effect; inactive = no such curve, though single readings can be large or run the other way.

These molecules were tested against N-terminal Xaa-Pro-Lys N-methyltransferase 1 (Homo sapiens) (UniProt Q9BV86) (assay: qHTS Assay for Inhibitors of N-terminal methyltransferase 1 (NTMT1): LOPAC validation of the NTMT1 SAHH-coupled ThioGlo3 Assay (AID 1347143;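 note: SAH from peptide methylation measured as thiol fluorescence via SAHH coupling and ThioGlo3; nearly all actives have a fitted effect of over 70% in size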; for activity change, negative = inhibition: % is set by controls: 0 for no effect and ±100 for the full control effect)). Conditions: recombinant NTMT1, SAHH-coupled ThioGlo3 fluorescence; series mostly up to 114 µM; activity change, negative = inhibition: at the top concentration.
How it was run: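 NTMT1 125nM + cpds (various conc.), 1 min RT; add SAM 100uM/SAHH 10uM/ThioGlo3 15uM (addition mix). SAHH-coupled thiol detection, Ex340/Em450, t0 and 30 min RT; signal normalized to background. LOPAC 1280-cpd pilot.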
Potency is the fitted concentration of half-maximal effect; tags give direction and shape of the fitted curve.

Chain of UniProt Q9BV86 (Q9BV86 whole entry, looked up): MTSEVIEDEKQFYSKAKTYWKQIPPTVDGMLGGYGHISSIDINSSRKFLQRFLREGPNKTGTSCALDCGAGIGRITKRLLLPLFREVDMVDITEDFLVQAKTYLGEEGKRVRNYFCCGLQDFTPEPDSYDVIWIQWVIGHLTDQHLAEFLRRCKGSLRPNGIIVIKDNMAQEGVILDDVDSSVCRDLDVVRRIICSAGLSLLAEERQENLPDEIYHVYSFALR

SMILES | activity change, negative = inhibition | Potency
Cc1cccc(C)c1NC1=NCCCS1 | inactive: -17.4% | –
CC(CCc1ccccc1)NC(C)C(O)c1ccc(O)cc1 (stereo not drawn) | inactive: -13.1% | –
CC[C@@H](CO)NC(=O)[C@@H]1C=C2c3cccc4c3c(cn4C)C[C@H]2N(C)C1 | – | active: 56.2 µM
CC1=NN=C(c2ccc(N)cc2)c2cc3c(cc2C1)OCO3 | – | active: 56.2 µM
CN1CC[C@@]2(C)c3cc(OC(=O)Nc4ccccc4)ccc3N(C)[C@@H]12 | – | inconclusive: 56.2 µM [inhibitor, partial curve]
COc1cc(C(O)CN)ccc1O (stereo not drawn) | inactive: -26.4% | –
CCCN1CCC[C@@H]2Cc3nc(N)ncc3C[C@H]21 | – | inconclusive: 56.2 µM [inhibitor, partial curve]
c1ccc(CCCN2CCN(CCOC(c3ccccc3)c3ccccc3)CC2)cc1 | – | inconclusive: 35.5 µM [inhibitor, partial curve]
C[N+](C)(C)CC(=O)O | – | inconclusive: 56.2 µM [inhibitor, partial curve]
C/C=C(/C)C(=O)O[C@H]1C(C)=C2[C@H]([C@@H]1OC(=O)CCCCCCC)[C@@](C)(OC(C)=O)C[C@H](OC(=O)CCC)[C@@]1(O)[C@H]2OC(=O)[C@@]1(C)O | inactive: 22.5% | –
CN1C[C@H](CNC(=O)OCc2ccccc2)C[C@@H]2c3cccc4c3c(cn4C)C[C@H]21 | – | inconclusive: 56.2 µM [inhibitor, partial curve]
C[N+](C)(C)CC#CCOC(=O)Nc1cccc(Cl)c1 | inactive: -20.4% | –

What follows are molecules tested against Furin (Homo sapiens) (UniProt P09958) (assay: Furin counterscreen qHTS for Zika virus inhibitors (AID 1347149; note: nearly all actives have a fitted effect of over 70% in size;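 for activity change, negative = inhibition: purified recombinant full-length human furin enzyme at 5 nM; fluorescence gain from furin cutting a BOC-RVRR-AMC peptide substrate over 15 min; top concentration of the series differs between compounds; plate controls were no-inhibitor control for no effect and no-enzyme control for full effect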)). Conditions: furin enzymatic counterscreen, fluorogenic substrate; series mostly up to 57.5 µM; activity change, negative = inhibition: at the top concentration.
How it was run: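 Counterscreen measures cleavage of 2 microM BOC-RVRR-AMC, below its ~15 microM Km, by 5 nM full-length human furin at pH 7.0 after a 15-min compound preincubation. Inhibition derives from the 15-min fluorescence increase at 37C.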

Chain of UniProt P09958 (P09958 whole entry, looked up): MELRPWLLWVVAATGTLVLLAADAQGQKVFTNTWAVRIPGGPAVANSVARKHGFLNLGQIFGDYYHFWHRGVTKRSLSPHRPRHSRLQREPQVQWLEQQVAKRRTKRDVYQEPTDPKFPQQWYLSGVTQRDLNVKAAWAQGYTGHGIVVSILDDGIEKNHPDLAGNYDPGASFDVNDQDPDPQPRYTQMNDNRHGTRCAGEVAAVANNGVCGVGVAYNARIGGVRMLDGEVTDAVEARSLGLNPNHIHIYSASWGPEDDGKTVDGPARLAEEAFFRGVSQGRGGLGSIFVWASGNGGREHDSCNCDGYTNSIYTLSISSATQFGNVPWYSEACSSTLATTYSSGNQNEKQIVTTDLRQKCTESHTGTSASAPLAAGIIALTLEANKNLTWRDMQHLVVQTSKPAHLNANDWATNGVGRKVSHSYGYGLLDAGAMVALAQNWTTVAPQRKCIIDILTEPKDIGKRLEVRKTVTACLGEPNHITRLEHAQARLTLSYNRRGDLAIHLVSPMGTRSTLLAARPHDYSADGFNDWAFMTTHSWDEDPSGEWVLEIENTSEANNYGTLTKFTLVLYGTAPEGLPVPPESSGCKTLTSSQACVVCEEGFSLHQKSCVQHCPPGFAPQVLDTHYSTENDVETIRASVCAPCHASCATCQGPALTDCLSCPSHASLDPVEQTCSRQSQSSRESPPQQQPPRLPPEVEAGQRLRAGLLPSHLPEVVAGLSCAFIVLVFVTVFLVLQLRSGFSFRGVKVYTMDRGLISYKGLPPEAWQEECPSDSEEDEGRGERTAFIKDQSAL

SMILES | Potency | activity change, negative = inhibition
O=c1c(C2CC(c3ccc(-c4ccc(Br)cc4)cc3)Cc3ccccc32)c(O)sc2ccccc12 (stereo not drawn) | inconclusive: 24.1 µM [inhibitor, partial curve] | –
CN(C)[C@@H]1C(=O)C(C(N)=O)=C(O)[C@@]2(O)C(=O)C3=C(O)c4c(O)cccc4[C@@](C)(O)[C@H]3[C@H](O)[C@@H]12 | inconclusive: 24.1 µM [inhibitor, partial curve] | –
O=c1oc2ccccc2c(O)c1C(CC(O)c1ccc(-c2ccc(Br)cc2)cc1)c1ccccc1 (stereo not drawn) | active: 26.4 µM | –
O=c1oc2ccccc2c(O)c1Cc1c(O)c2ccccc2oc1=O | – | inactive: -6.02% [at 114 µM]
O=C(O)C(=O)c1cn(Cc2ccccc2)c2ccc(-c3ccc(OC(F)(F)F)cc3)cc12 | inconclusive: 6.07 µM [inhibitor, full curve] and inconclusive: 12.4 µM [inhibitor, full curve] | –
C[C@@]1(C(=O)O)CC[C@]2(C)CC[C@]3(C)C4=CC(=O)c5cc(O)c(O)cc5[C@]4(C)CC[C@@]3(C)[C@@H]2C1 | – | inactive: -2.38%
CC(C)=CCC[C@]1(C)C=Cc2c(O)c3c(c(CC=C(C)C)c2O1)O[C@]12C(=C[C@@H]4CC1C(C)(C)O[C@@]2(C/C=C(/C)C(=O)O)C4=O)C3=O | inconclusive: 7.64 µM [inhibitor, partial curve] | –
N[C@@H](Cc1ccc(Oc2cc(I)c(O)c(I)c2)c(I)c1)C(=O)O | inconclusive: 14.8 µM [inhibitor, full curve] | –
Cc1cc(SCc2sc(-c3ccc(C(F)(F)F)c(F)c3)nc2C)ccc1OCC(=O)O | inconclusive: 24.1 µM [inhibitor, partial curve] and inconclusive: 27 µM [inhibitor, partial curve] and inconclusive: 42.9 µM [inhibitor, partial curve, poor fit] | –
CC/C=C/C=C/C1(C)OC(OC)=C(C(=O)C2C(C)C(=O)c3cc(OC)c(O)c(O)c3C2(C)O)C1=O (stereo not drawn) | – | inactive: 7.39%
C[C@]12CC[C@@H]3c4ccc(OC(=O)N(CCCl)CCCl)cc4CC[C@H]3[C@@H]1CC[C@@H]2O | inconclusive: 24.1 µM [inhibitor, partial curve] | –
CN1C[C@H](CNC(=O)OCc2ccccc2)C[C@@H]2c3cccc4c3c(cn4C)C[C@H]21 | inconclusive: 21.5 µM [inhibitor, partial curve] | –

What follows are molecules tested on Zika virus NS2B-NS3 protease (unlinked) (assay: Optimization of GU AMC qHTS for Zika virus inhibitors: Unlinked NS2B-NS3 protease assay (AID 1347151; note: nearly all actives have a fitted effect of over 80% in size;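 for activity change, negative = inhibition: 0% = no-inhibitor control and -100% = no-enzyme control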)). Conditions: recombinant ZIKV NS2B-NS3 protease, fluorogenic AMC substrate; series mostly up to 52.5 µM; activity change, negative = inhibition: at the top concentration.
How it was run: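 Noncovalent NS2B hydrophilic domain–NS3 protease complex (25 nM final) in 10 mM Tris-HCl pH 8.0, 0.01% Tween 20; AMC substrate, room temperature 15 min (~20% conversion); fluorescence change normalized, 4-parameter Hill fit.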

SMILES | activity change, negative = inhibition | Potency
Cc1cccc(C)c1NC1=NCCCS1 | inactive: 9.44% | –
N#C/C(=C/c1ccc(O)c(O)c1)C(N)=S | – | inconclusive: 18.9 µM [inhibitor, partial curve]
O=C(O)c1nn(Cc2ccc(Cl)cc2Cl)c2ccccc12 | – | inconclusive: 18.9 µM [inhibitor, single point]
CN1CC[C@@]2(C)c3cc(O)ccc3N(C)C12 (stereo partly drawn) | – | inconclusive: 16.8 µM [inhibitor, partial curve]
CC1=NN=C(c2ccc(N)cc2)c2cc3c(cc2C1)OCO3 | – | inconclusive: 18.9 µM [inhibitor, single point]
CN(N=O)c1ccc(O)c(O)c1 | – | inconclusive: 21.2 µM [inhibitor, single point]
N#CC(C#N)=Cc1ccc(O)c(O)c1 | – | inconclusive: 26.7 µM [inhibitor, partial curve]
CCCN1CCC[C@@H]2Cc3nc(N)ncc3C[C@H]21 | – | inconclusive: 23.8 µM [inhibitor, single point]
CC(Cc1ccc(OCC(=O)O)cc1)NCC(O)c1cccc(Cl)c1 (stereo not drawn) | inactive: 7.29% | –
COc1ccc2c(c[n+](C)c3c4cc5c(cc4ccc23)OCO5)c1OC | – | active: 29.9 µM
C=CCN1CCC2(C)c3cc(O)ccc3C[C@H]1[C@H]2C | – | inconclusive: 27.1 µM [inhibitor, single point]
COc1ccc2c(c1OC)C(=O)O[C@H]2[C@@H]1c2cc3c(cc2CCN1C)OCO3 | – | inconclusive: 26.7 µM [inhibitor, single point]
C/C=C(/C)C(=O)O[C@H]1C(C)=C2[C@H]([C@@H]1OC(=O)CCCCCCC)[C@@](C)(OC(C)=O)C[C@H](OC(=O)CCC)[C@@]1(O)[C@H]2OC(=O)[C@@]1(C)O | – | inconclusive: 5.97 µM [inhibitor, full curve, poor fit]
C[N+](C)(C)CC#CCOC(=O)Nc1cccc(Cl)c1 | inactive: 3.11% | –
